Here are results for 80 compounds from publication PMC12040169 (PLOS Biology, 2025).

This is one part of the list.

The assay concerns T1, C. trachomatis L2/434/Bu expressing GFP (CTL2-GFP).
T1 construct: L2/434/Bu GFP intracellular growth in HeLa cells
Set-up: species or system HeLa; C. trachomatis total inclusion area by high-content imaging, normalised to DMSO. The conditions noted are these: total inclusion area; 28.5 h, 10 µM; inhibitor. In short, it runs like this:
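High-content images of fixed, Hoechst-stained infected cultures supply inclusion area and count (growth) plus nuclei number (viability), complementing bulk GFP/resorufin fluorescence. MIC determination is unchanged from the primary assay.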
Regarding `CCNc1nc(-c2ccc(Oc3ccccc3)cc2)cn2ccnc12` [CBK066467], the “% of control remaining” value was determined as 145.272.

Take `Cc1c(-n2nnnc2SC(C)c2ccccc2)c(=O)n(-c2ccccc2)n1C` (centres unmarked) [CBK295651]: the “% of control remaining” value worked out at 75.4175.

As for `O=C(CSc1ncnc2c1oc1ccccc12)NC1CCCC1` [CBK287788], the “% of control remaining” value stood at 58.9101.

Take `COc1cccc2cc(C(=O)NCc3ccc(Cl)c(Cl)c3)oc12` [CBK149795]: the “% of control remaining” value is recorded as 76.6073.

For `Cn1c(=O)c2c(-c3ccccc3)onc2n(C)c1=O` [CBK023569], the “% of control remaining” value is recorded as 103.632.

As for `COC1C(O)C(CO)OC1n1cc(I)c(=O)[nH]c1=O` (centres unmarked) [CBK201211], the “% of control remaining” value came to 73.0467.

Consider `O=C(NCc1cccs1)OCc1ccccc1` [CBK008074], for which the “% of control remaining” value is given as 51.7211.

`Cc1cc(=O)n2c(c1C#N)SCC2` [CBK027807]: the “% of control remaining” value was determined as 51.2339.

Turning to `O=c1[nH]c2ncc(-c3cccc4ncccc34)nc2n1CCCO` [CBK065060], the “% of control remaining” value came to 109.405.

With `Cc1ccc(C(=O)N/C(=C\c2cccc([N+](=O)[O-])c2)C(=O)NC2CCCCC2)cc1` [CBK261407], the “% of control remaining” value was determined as 96.3657.

Turning to `Nc1nc2c(cc1C(=O)NCc1ccccc1)CN(C(=O)CCCc1ccc(F)cc1)CC2` [CBK285887], the “% of control remaining” value came to 93.525.

In the case of `COc1ccc(C(=O)NCC(=O)NCCOC(=O)c2c(-c3c(F)cccc3Cl)noc2C)cc1` [CBK007386], the “% of control remaining” value stood at 116.5.

With `COCCC(=O)NC(Cc1cccs1)c1nccs1` (centres unmarked) [CBK282180], the “% of control remaining” value turned out to be 101.509.

Take `CN(C)C(=O)c1ccc(Cn2nc(NC(=O)OCc3ccccc3)c3ccccc32)cc1` [CBK048578]: the “% of control remaining” value is on record as 102.832.

As for `Cc1c(S(=O)(=O)Nc2ccc3nsnc3c2)cnn1-c1ccccc1` [CBK062229], the “% of control remaining” value is 87.4445.

As for `Cn1nccc1NS(=O)(=O)c1ccc(-c2cc(C(F)(F)F)on2)s1` [CBK062087], the “% of control remaining” value is given as 92.5617.

Turning to `CC(C)(C)c1csc(Nc2ncc(C(F)(F)F)cc2Cl)n1` [CBK021513], the “% of control remaining” value worked out at 103.491.

Consider `Cc1csc(C(=O)N2CCC(c3cc(O)cc(C)n3)CC2)c1` [CBK283466], for which the “% of control remaining” value amounted to 82.8538.

On to `Cn1c(C(N)=O)cc(=O)n1-c1ccc([N+](=O)[O-])cc1` [CBK015873], for which the “% of control remaining” value is on record as 83.2999.

For the compound `CC(NC(=O)c1ncoc1-c1ccc(F)cc1)c1ccncc1` (centres unmarked) [CBK282319], the “% of control remaining” value is 81.2148.

For `COc1cc(CNC(=O)NC(=O)C2CCN(CCc3c(-c4ccccc4)[nH]c4ccccc34)CC2)cc(OC)c1OC` [CBK034859], the “% of control remaining” value was 87.9798.

With `Cc1cccc(-c2n[nH]c(=S)n2CC(=O)NCCCS(=O)(=O)Cc2ccccc2)c1` [CBK297942], the “% of control remaining” value was 90.1695.

As for `CCOC(=O)c1[nH]c2ccccc2c1NC(=O)c1ccoc1` [CBK160169], the “% of control remaining” value came out at 96.3673.

For the compound `CC1(OCCCO)SC(NC2CCCCCC2)=NC1=O` (centres unmarked) [CBK107927], the “% of control remaining” value came out at 96.8602.

As for `Cc1ncccc1C(=O)N1CCC(F)CC1` [CBK200398], the “% of control remaining” value came out at 100.605.

For the compound `CCCn1cnc2sc(C(=O)O)c(C)c2c1=O` [CBK287199], the “% of control remaining” value is listed as 98.1785.

For `CC1CCC(N(C)Cc2nc3sc4c(c3c(=O)[nH]2)CCC4)CC1` (centres unmarked) [CBK305876], the “% of control remaining” value amounted to 17.9579.

On to `Cc1cc2nc(-c3cc(NC(=O)c4ccc(C)c([N+](=O)[O-])c4)ccc3O)oc2cc1C` [CBK262779], for which the “% of control remaining” value is on record as 106.092.

Take `CC(C)c1ccc(C(=O)N2CCC(n3cnc4cccnc43)CC2)cc1` [CBK282370]: the “% of control remaining” value is given as 106.603.

Consider `Cc1ccc(S(=O)(=O)Nc2nnc(C3CCCCC3)s2)cc1` [CBK022722], for which the “% of control remaining” value was found to be 103.162.

For `CC(C)Oc1ccc(C2CC(=O)N(c3cccc(C(=O)O)c3)C2=O)cc1` (centres unmarked) [CBK291181], the “% of control remaining” value stood at 124.736.

Regarding `COc1nc(SC)nc2[nH]ccc12` [CBK085861], the “% of control remaining” value is reported as 94.4382.

On to `Cc1cc(C(=O)NCCCn2ccnc2)no1` [CBK268145], for which the “% of control remaining” value was 104.799.

On to `CC(=O)Nc1ccc(NC(=O)CSCc2ccc(Cl)cc2Cl)cc1` [CBK131696], for which the “% of control remaining” value turned out to be 88.0467.

Take `O=C(COc1ccccc1C1CC(=O)Nc2ccc3ccccc3c21)Nc1ccccc1` (centres unmarked) [CBK265704]: the “% of control remaining” value was 91.9706.

As to `CC1(C)CC(=O)C=C(SCC(=O)C(C)(C)C)S1` [CBK005523], the “% of control remaining” value is 17.1542.

Take `Cn1cc(C(=O)Nc2cccc(S(=O)(=O)N3CCCCCC3)c2)cn1` [CBK305715]: the “% of control remaining” value was determined as 53.6886.

For the compound `O=C(NCC(CN1CCOCC1)([N+](=O)[O-])[N+](=O)[O-])c1ccccc1` [CBK261339], the “% of control remaining” value came to 101.29.

Consider `Cc1ccc(OCC(=O)Nc2cccc3nsnc23)c(C)c1` [CBK263816], for which the “% of control remaining” value stood at 97.8487.

For the compound `COc1ccc(OC)c(S(=O)(=O)N2CCC(C(=O)O)CC2)c1` [CBK266835], the “% of control remaining” value was 104.57.

In the case of `C=CCn1c(SCC(=O)N2c3ccccc3C(C)(c3ccccc3)CC2(C)C)nnc1-c1ccncc1` (centres unmarked) [CBK059171], the “% of control remaining” value is recorded as 93.2394.

As for `COC(=O)c1c(NC(=O)Cn2nc([N+](=O)[O-])c(Cl)c2C)sc2c1CCCC2` [CBK263047], the “% of control remaining” value came out at 101.221.

With `COc1ccc(Cl)cc1CN(C)C(=O)c1cnn2cc(CCO)cnc12` [CBK307236], the “% of control remaining” value came to 60.0949.

As for `CCOC(=O)C1CCN(CC(=O)Nc2ccc(S(N)(=O)=O)cc2)CC1` [CBK266118], the “% of control remaining” value is 125.834.

For `CC(Oc1nccnc1OCc1ccc(Cl)c(Cl)c1)c1ccncc1` (centres unmarked) [CBK161609], the “% of control remaining” value stood at 72.3538.

With `O=[N+]([O-])c1ccc(C2CNC(c3ccccc3O)O2)cc1` (centres unmarked) [CBK262298], the “% of control remaining” value turned out to be 104.494.

Turning to `O=C(C1CC(O)CN1)N1CC2(CCCC2)c2c(F)cccc21` (centres unmarked) [CBK304269C], the “% of control remaining” value worked out at 85.795.

`O=C(C1=Cc2ccccc2OC1)N1CCn2cc(C(F)(F)F)nc2C1` [CBK283913]: the “% of control remaining” value is recorded as 92.8101.

As to `Cn1cc(/C=C(\C(=O)O)C(C(=O)O)=C2C3CC4CC(C3)CC2C4)c2ccccc21` [CBK263749], the “% of control remaining” value was found to be 96.4042.

Regarding `OCc1ccccc1-c1cn2ccnc2c(Nc2ccc(N3CCOCC3)cc2)n1` [CBK037956], the “% of control remaining” value was found to be 94.4876.

Take `CCOC(=O)c1c(N)sc2c1CC(c1ccccc1)SC2c1ccccc1` (centres unmarked) [CBK293955]: the “% of control remaining” value amounted to 98.4081.

Take `OC1(c2cccnc2)CCCC2CN(Cc3ccc(F)c(F)c3)CC21` (centres unmarked) [CBK284511]: the “% of control remaining” value was found to be 62.8372.

For the compound `CN1CCN(C(=O)c2ccc(-c3cnc(N)c(-c4ccc(O)cc4)n3)cc2F)CC1` [CBK200421], the “% of control remaining” value was determined as 87.6216.

As for `O=C(Nc1nc2ccc(Br)cc2s1)C1CC1` [CBK026046], the “% of control remaining” value stood at 88.0489.

For `COCCCn1c(=O)[nH]c2ncc(-c3ccco3)nc21` [CBK064449], the “% of control remaining” value amounted to 99.3043.

In the case of `Cc1ncccc1C(=O)NC(Cc1cccs1)c1nccs1` (centres unmarked) [CBK285153], the “% of control remaining” value amounted to 72.885.

For the compound `O=C(c1cccc(S(=O)(=O)Nc2ccccn2)c1)N1CCCc2ccccc21` [CBK269645], the “% of control remaining” value came to 92.4375.

In the case of `Cc1c(C(=O)C2=C(O)C(=O)N(CCCN(C)C)C2c2cccnc2)cnn1-c1ccccc1` (centres unmarked) [CBK269312], the “% of control remaining” value amounted to 101.735.

For the compound `COc1cc(C2CN=NC23Cc2ccccc2C3=O)cc(OC)c1OC` (centres unmarked) [CBK019341], the “% of control remaining” value worked out at 76.8255.

As to `O=C(c1ccccc1)N1CCCC1c1n[nH]cc1-c1ccncc1` (centres unmarked) [CBK283433], the “% of control remaining” value is reported as 102.049.

Take `CCOC(=O)Cn1nc(CC)c(Cc2c(Cl)cccc2Cl)c1C` [CBK113222]: the “% of control remaining” value is 102.954.

As to `COc1ccc(NC(=O)c2cnc(-c3ccc(Cl)cc3)c(-c3ccc(C(C)=O)s3)c2)cn1` [CBK036643], the “% of control remaining” value came to 94.4642.

For `COc1ccc(C(NC(=O)C2CCN(C(=O)NC(C)(C)C)CC2)c2ccccn2)cc1` (centres unmarked) [CBK060298], the “% of control remaining” value worked out at 77.0994.

On to `C=C1C2(C(=O)NCCn3nc(C)c(Cl)c3C)CCC(C2)C1(C)C` (centres unmarked) [CBK281661], for which the “% of control remaining” value is 109.525.

As to `COC(=O)c1cccc2c1[nH]c1ccccc12` [CBK001709], the “% of control remaining” value came to 99.4123.

`O=S(=O)(Nc1ccc2nsnc2c1)c1ccc(F)cc1` [CBK051010]: the “% of control remaining” value came out at 83.218.

As for `Cc1cccc(CC(=O)N2CCCC2c2ccnc3cc(C)nn23)c1` (centres unmarked) [CBK283472], the “% of control remaining” value is reported as 60.0892.

`CCC(NC(=O)c1csc2c1CCCC2)c1ccccc1` (centres unmarked) [CBK059006]: the “% of control remaining” value was 88.0075.

On to `CC(C(=O)N1CCC(C(=O)c2nccs2)CC1)c1ccccc1` (centres unmarked) [CBK284163], for which the “% of control remaining” value was 89.074.

For the compound `CC1=C[C@@H](CNS(=O)(=O)c2ccccc2)[C@H](C(C)C)C[C@H]1CC(=O)N1CCOCC1` [CBK289049], the “% of control remaining” value came out at 110.713.

Take `O=C(NCC1CCCN1)c1ccccc1Nc1cccc(C(F)(F)F)c1` (centres unmarked) [CBK115916C]: the “% of control remaining” value is 50.7344.

Take `Clc1ccc(-c2cc(CN3CCCCC3)no2)cc1Cl` [CBK018435]: the “% of control remaining” value came to 116.828.

Consider `COc1ccccc1-c1cnc2[nH]c(=O)n(CC(C)(C)CO)c2n1` [CBK064690], for which the “% of control remaining” value worked out at 86.0552.

Consider `Cc1cc(Cl)c(S(=O)(=O)Nc2cccnc2)cc1OCC(=O)NC1CCCCC1` [CBK266773], for which the “% of control remaining” value came to 98.3064.

In the case of `CC(C)(C(=O)N1CCC(C(=O)NCCc2c[nH]c3ccccc23)C1)c1ccc(F)cc1` (centres unmarked) [CBK286034], the “% of control remaining” value is given as 113.42.

In the case of `CC(C)(C)OC(=O)NCc1ccc(CNCc2cc(F)cc(F)c2)cc1` [CBK056707], the “% of control remaining” value turned out to be 78.0498.

Regarding `Cc1ccc(S(=O)(=O)N2CCN(Cc3cc(Br)ccc3O)CC2)cc1` [CBK264242], the “% of control remaining” value stood at 131.021.

Consider `CC(C)NC(=O)N1Cc2nc[nH]c2C[C@H]1c1nc(-c2ccc(F)c(Cl)c2)no1` [CBK288999], for which the “% of control remaining” value is given as 125.045.

Turning to `OC1(c2ccc(F)cc2)CC2CCC(C1)N2Cc1ccccn1` (centres unmarked) [CBK283490], the “% of control remaining” value is 73.7361.

As to `CCn1cc(C(=O)N2CCC(Oc3ccccc3C)(C(=O)O)CC2)cn1` [CBK306699], the “% of control remaining” value worked out at 112.805.
